The source of these data is patent publication US20150246024A1 (priority 2012, published 2015).

The subject of this assay is S. aureus Newman. The following applies: 32 mg/kg intraperitoneal in 12-hour intervals, from 24 hours prior to 72 hours post infection; 1×10^8 CFU. The method, then: Inhibitor solution was prepared freshly prior to every injection. Briefly, a frozen stock of compound 1771 (1) was pre-warmed at 37° C. for 5 minutes and suspended into Compound buffer (20 mM HEPES-KOH, pH 7.5, 100 mM NaCl). The clinical isolate Newman was used for infection since it has been extensively characterized in our laboratory to study the therapeutic effects of small molecule inhibitors (McAdow 2011). […] An overnight culture of strain Newman was diluted 1:100 into fresh TSB and grown until an OD600 of 0.4. Bacteria were centrifuged at 7,000×g, washed, and suspended in one-tenth volume of PBS. Six week-old female BALB/c mice (n=15) (Charles River) were injected retro-orbitally with 1×10^8 colony forming unit (CFU) suspension in 100 μl of PBS. Mice were monitored for survival over 10 days. […]
The therapeutic impact of compound 1771 during infection was examined. First, we evaluated the half-life of compound 1771 in vivo. […]
Animal experiments were performed in accordance with the institutional guidelines following experimental protocol review and approval by the Institutional Biosafety Committee (IBC) and the Institutional Animal Care and Use Committee (IACUC) at the University of Chicago. S. aureus Newman (1×10^8 CFU suspended in 100 μl PBS) was injected into the periorbital venous plexus of BALB/c mice (n=15) and animals were monitored for survival over 10 days. […]

Take `O=C(COC(=O)Cc1coc2ccc3ccccc3c12)Nc1nnc(-c2ccccc2)o1` [Compound 1771, 2-oxo-2-[(5-phenyl-1,3,4-oxadiazol-2-yl)amino]ethylnaphtho[2,1-b]furan-1-ylacetate]: the “survival of treated animals after challenge” value is on record as “up to 132 hours”.
